# Measurements: PubChem BioAssay AID485294 (National Center for Advancing Translational Sciences (NCATS), 2010)
# The whole screen tested about 370,000 compounds, of which about 150 (0.041%) were called active. Inconclusive means that the source gave no clear call. Such entries were picked first, then a sample of the others. The call rests on the fitted dose curve; in most records, active means well fitted inhibition curve with a large enough effect; inconclusive means small, poorly fitted or top-dose-only effect; inactive means flat fitted curve, though single readings scatter. No potency is given beside an inconclusive call; the fits are too rough.
# Biological target: Beta-lactamase (Escherichia coli (strain K12)) (UniProt P00811)
# UniProt P00811, sequence (P00811 whole entry, looked up): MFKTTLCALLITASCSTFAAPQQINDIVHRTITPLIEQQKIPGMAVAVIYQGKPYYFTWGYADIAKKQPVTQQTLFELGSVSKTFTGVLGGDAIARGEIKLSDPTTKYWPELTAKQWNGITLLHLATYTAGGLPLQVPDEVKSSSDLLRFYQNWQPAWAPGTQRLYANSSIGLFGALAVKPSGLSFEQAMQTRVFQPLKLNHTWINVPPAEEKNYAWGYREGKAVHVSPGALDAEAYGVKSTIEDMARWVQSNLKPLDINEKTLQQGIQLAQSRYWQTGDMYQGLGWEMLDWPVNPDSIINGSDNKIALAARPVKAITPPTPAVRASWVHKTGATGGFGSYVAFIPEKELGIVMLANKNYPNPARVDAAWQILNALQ
# Assay: qHTS Inhibitors of AmpC Beta-Lactamase (assay with detergent); further: nearly all actives have a fitted effect of over 25% in size
# Settings: AmpC hydrolysis of nitrocefin, absorbance 480 nm, 0.01% Triton; series mostly up to 114 µM
# Summary of the method: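 20 mM phosphate pH 7.0 + 0.01% (detergent screen) or 0.0001% Triton X-100; 5.3 nM AmpC reagent; cpd preinc 15 min RT; nitrocefin (800 uM stock) to start; A480 q20 s × 4 min; Activity was normalised to no-enzyme and no-compound control wells.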
# Potency means the concentration at half of the fitted maximal effect; tags describe the fitted curve by direction and shape.
row,SMILES,Potency
1,O=C(Cc1ccccc1Cl)N1CCN(c2ccccn2)CC1,"inconclusive [inhibitor, full curve]"
2,CCOc1ccccc1NC1c2ccccc2C(=O)N1c1ccc(C)cn1 (stereo unspecified),"inconclusive [inhibitor, partial curve, poor fit]"
3,COc1ccc(CN(Cc2cc3ccc(C)cc3[nH]c2=O)Cc2nnnn2C2CCCC2)cc1,"inconclusive [inhibitor, single point]"
4,Cc1ccc(C(=O)c2oc3nc(C)cc(C)c3c2N)cc1,"inconclusive [inhibitor, full curve, poor fit]"
5,CCNS(=O)(=O)c1ccc(NC(=O)c2cccnc2)cc1,"inconclusive [inhibitor, full curve, poor fit]"
6,CC12CCC(=O)N1C(C(=O)NCCN1C(=O)S/C(=C\c3ccccc3Cl)C1=O)CS2 (stereo unspecified),"inconclusive [inhibitor, full curve, poor fit]"
7,CCOc1ccccc1C1C2C(=O)N(c3ccccc3)C(=O)C2ON1c1ccccc1 (stereo unspecified),inactive
8,CCn1c(SCC(=O)Nc2cc(C)ccc2C)nc2c(c1=O)SC(C)C2 (stereo unspecified),"inconclusive [inhibitor, partial curve, poor fit]"
9,O=C(CSc1nnc(Cn2nnc3ccccc32)o1)Nc1cccc(Cl)c1,inactive
10,COC(=O)c1cc(=O)n(Cc2ccc(F)cc2)c(=NCc2ccc(F)cc2)s1,"inconclusive [inhibitor, single point]"
11,COc1ccc(C2=NN(CN3C(=O)C(=O)c4ccccc43)C(c3ccc(C)cc3)C2)cc1 (stereo unspecified),"inconclusive [inhibitor, full curve, poor fit]"
12,Cc1cc(Nc2ccc(C)c(C)c2)c2ccccc2n1,"inconclusive [inhibitor, full curve, poor fit]"
13,O=C(Nc1nccs1)[C@@H]1CCCN1S(=O)(=O)c1ccccc1F,"inconclusive [inhibitor, partial curve, poor fit]"
14,N#Cc1ccccc1Oc1ccc(S(=O)(=O)N2CCCCC2)cn1,"inconclusive [inhibitor, full curve, poor fit]"
15,CN(CCC1CCOCC1)C(=O)C1CCC(=O)N(CCc2cccc(F)c2)C1 (stereo unspecified),inactive
16,CCOC(=O)c1ccc(NC(=O)C(CC)CC)cc1,"inconclusive [inhibitor, full curve, poor fit]"
17,CC(=O)N(Cc1cc2cc(C)c(C)cc2n2nnnc12)CC1COCCO1 (stereo unspecified),inactive
18,CC(C(=O)Nc1ccccc1)c1ccc(-c2ccccc2)c(F)c1 (stereo unspecified),"inconclusive [inhibitor, full curve, poor fit]"
19,Fc1ccc(-c2nn(-c3ccccc3)cc2CNCc2ccccc2)cc1,inactive
20,CSc1nc(N)c(C#N)c(-c2ccccc2Cl)c1C#N,"inconclusive [inhibitor, full curve, poor fit]"
21,CC(=O)Nc1nonc1-c1ccccc1,"inconclusive [inhibitor, full curve, poor fit]"
22,CN(C)S(=O)(=O)c1cccc(NC(=O)c2cc(=O)[nH]c3ccccc23)c1,"inconclusive [inhibitor, full curve, poor fit]"

row,SMILES,Potency
1,Cc1ccc2cc(C#N)c(NCc3ccccc3)nc2c1,"inconclusive [inhibitor, full curve, poor fit]"
2,Cc1ccn2c(Nc3ccc(F)cc3)c(-c3ccc(C)o3)nc2c1,inactive
3,Cc1csc(NC(=O)CSc2sc3c(O)cc(=O)[nH]c3c2C#N)n1,"inconclusive [inhibitor, partial curve, poor fit]"
4,O=C(c1ccccc1)c1ccc(C(=O)N2CCCC(C(F)(F)F)C2)cc1 (stereo unspecified),"inconclusive [inhibitor, full curve, poor fit]"
5,O=CN1CCN(C(=O)COc2ccc(Cl)cc2Br)CC1,"inconclusive [inhibitor, single point]"
6,O=C(NCc1cccs1)C1CCC(CNS(=O)(=O)c2ccc(Br)s2)CC1 (stereo unspecified),"inconclusive [inhibitor, partial curve]"
7,Clc1cccc(C2Nc3cccc4cccc(c34)N2)c1Cl,"inconclusive [inhibitor, full curve, poor fit]"
8,COc1ccc(NC(C(=O)Nc2cccc(C(C)=O)c2)c2ccccc2)cc1 (stereo unspecified),"inconclusive [inhibitor, full curve]"
9,Cc1ccc(CCNC(=O)C2CCC(=O)N2C2CCCC2)cc1 (stereo unspecified),"inconclusive [inhibitor, partial curve, poor fit]"
10,COc1ccc(-c2oc3ncn4nc(-c5cccc(C)c5)nc4c3c2-c2ccc(OC)cc2)cc1,inactive
11,COc1cc(C(=O)Nc2nnc(S(=O)(=O)N(C)c3ccccc3)s2)cc(OC)c1OC,inactive
12,COc1ccc(OCC(=O)NCCCCCCNC(=O)COc2ccc(OC)cc2)cc1,"inconclusive [inhibitor, full curve, poor fit]"
13,CN(C)/C=N/C(=S)Nc1ccccc1F,"inconclusive [inhibitor, full curve]"
14,O=c1oc2ccccc2c(O)c1/C=N/c1ccccn1,"inconclusive [inhibitor, full curve, poor fit]"
15,COc1cccc(/C=C2\SC(N3CCC(C)CC3)=NC2=O)c1OC,inactive
16,Cc1ccc(OCC(=O)Nc2ccc(Cl)c(-c3nc4ncccc4o3)c2)cc1C,inactive
17,CCOc1cc(N2CCOCC2)c(OCC)cc1NC(=O)c1nc2nccc(C)n2n1,"inconclusive [inhibitor, full curve, poor fit]"
18,Cc1ccc(Nc2n[nH]c(C)c2[N+](=O)[O-])c(C)c1,"inconclusive [inhibitor, partial curve]"
19,O=S(=O)(c1ccccc1)c1nc(-c2ccco2)oc1N1CCCCCC1,"inconclusive [inhibitor, single point]"
20,CC(=O)c1ccc(NC(=S)NC(=O)/C=C/c2ccco2)cc1,"inconclusive [inhibitor, full curve, poor fit]"
21,COc1cccc(C(=O)N(Cc2ccco2)Cc2cc3cccc(C)c3[nH]c2=O)c1,"inconclusive [inhibitor, full curve, poor fit]"
22,O=c1[nH]c(=O)c2cn[nH]c2[nH]1,"inconclusive [inhibitor, full curve, poor fit]"

row,SMILES,Potency
1,O=C(Nc1nc(-c2ccccc2)cs1)C1CCCO1 (stereo unspecified),inactive
2,CCOc1ccc(NC(=O)C2CCCN(c3c(CC)c(C)nc4ncnn34)C2)cc1 (stereo unspecified),"inconclusive [inhibitor, partial curve]"
3,COc1ccc2nc(NC(=O)C3CCCN(S(=O)(=O)c4c(C)noc4C)C3)sc2c1 (stereo unspecified),"inconclusive [inhibitor, full curve, poor fit]"
4,Clc1ccc(-n2nnnc2CN2CCOCC2)cc1Cl,"inconclusive [inhibitor, single point]"
5,Fc1ccc2nc3n(c2c1F)CCCCCC3,"inconclusive [inhibitor, full curve, poor fit]"
6,Cc1cccc2c1N(CCCOc1ccccc1)C(=O)C2=O,inactive
7,CCOC(=O)/C(=C\C=C\c1ccccc1)NC(=O)c1ccccc1,"inconclusive [inhibitor, partial curve, poor fit]"
8,Cc1ccc(/C=N/NC(=O)Cc2ccc(Cl)cc2)s1,"inconclusive [inhibitor, full curve, poor fit]"
9,O=C(Nc1cccnc1)C1CCCN1S(=O)(=O)c1ccc(Cl)c(Cl)c1 (stereo unspecified),"inconclusive [inhibitor, partial curve]"
10,O=C(CCNC(=O)Cn1ccc2ccccc2c1=O)NCCc1ccccc1Cl,"inconclusive [inhibitor, full curve]"
11,CC1=C[C@@H](C)[C@@H](c2ccc(C(F)(F)F)cc2)OC1=O,"inconclusive [inhibitor, full curve, poor fit]"
12,CCN1CCN(Cc2nc3c(c(=O)n(C)c(=O)n3C)n2CCc2ccccc2)CC1,inactive
13,CCCCCNC(=O)c1c[nH]c2ccc(S(=O)(=O)N3CCC(C)CC3)cc2c1=O,inactive
14,O=C(Cn1nc(C(F)(F)F)c2c1CCCC2)NCCN1CCOCC1,inactive
15,C#CCOC(=O)CN1C(=O)c2cccc3cccc(c23)C1=O,"inconclusive [inhibitor, partial curve, poor fit]"
16,Cc1[nH]ncc1N=Cc1ccc([N+](=O)[O-])cc1,"inconclusive [inhibitor, partial curve, poor fit]"
17,Cc1ccc(-c2c[n+](CC(=O)Nc3c(C)cccc3C)c3n2CCC3)cc1,inactive
18,CCOC(=O)c1oc2ccccc2c1CSc1nnnn1-c1ccc(OC)cc1,"inconclusive [inhibitor, full curve, poor fit]"
19,c1ccc(-n2c(-c3ccco3)nnc2N2CCOCC2)cc1,"inconclusive [inhibitor, full curve, poor fit]"
20,O=C(CSc1nnnn1C1CCCCC1)Nc1cccc(NC(=O)c2ccco2)c1,"inconclusive [inhibitor, full curve, poor fit]"
21,Cc1ccc(OCC(=O)NN=C2C3CC4CC(C3)CC2C4)cc1,"inconclusive [inhibitor, full curve, poor fit]"
22,O=C(CCNC(=O)c1ccc(Br)cc1)NC1CCCCCC1,"inconclusive [inhibitor, full curve, poor fit]"
